PubChem BioAssay AID1963576 (National Center for Advancing Translational Sciences (NCATS), 2024)
Among all 46,000 compounds or so, about 60 (0.1%) were called active. About 3% were inconclusive and are not listed. The call rests on the fitted dose curve; in most records, active means well fitted inhibition curve with a large enough effect; inconclusive means small, poorly fitted or top-dose-only effect; inactive means no such curve, though single readings can be large or run the other way. The list shows a part of the results.

assay: Primary qHTS assay for Inhibitors of ovarian cancer metastasis using an organotypic tumor microenvironment (TME) model.; further: nearly all actives have a fitted effect of over 65% in size;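 on activity change, negative = inhibition: plate controls were DMSO wells for no effect and tomatine positive control wells for full effect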; settings: SKOV3ip1-GFP adhesion/invasion on 3D omental model, fluorescence; series mostly up to 45.8 µM; activity change, negative = inhibition: at the top concentration
Procedure, shortened: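 qHTS, 4-pt dose (0.36-46 umol/L); SKOV3ip1-GFP, 1,200 cells/well, no FBS; primary omental fibroblast/mesothelial co-culture 48 h pre-grown; 2 h RT + 16 h 37 C; PBS wash, 4% PFA; GFP count 488/509 nm.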

Activity change, negative = inhibition, inactive:
Cc1cccc(N2CCN(C(=O)Cn3nc(C)c4sc5ccccc5c4c3=O)CC2)c1C 9.33%, Cc1ccccc1NC(=O)c1cc2c(-c3ccccc3)nn(-c3ccccc3)c2s1 25%, COc1ccccc1NC(=O)C1=C(C)Nc2c(C(=O)Nc3ccc(C)cc3)cnn2C1c1cccc(OC)c1OC (stereo unspecified) -9.51%, CCc1ccc(NCc2cc3ccc(OC)cc3n(CC(=O)Nc3ccccc3C)c2=O)cc1 -2.91%, CC(=O)c1cccc(NC(=O)CSc2nc3c(c(=O)[nH]2)CCC3)c1 2.87%, COc1ccc(CCC(=O)NCc2ccc3c(c2)CCN3C(=O)c2ccc(Cl)cc2)cc1 -20.8%, COC(=O)c1ccc(Cl)cc1NC(=O)Nc1nnc(N(C)C2CCCCC2)s1 -3.72%, CCc1ccccc1S(=O)(=O)Cc1ccc(C(=O)NCc2ccc(Cl)cc2)o1 0.314%, CCc1ccc(C(=O)CC2(O)C(=O)N(CCc3ccccc3)c3ccc(Br)cc32)cc1 (stereo unspecified) 6.81%, CCc1c(C)sc2c1CCN(Cc1cccc(OC)c1)C2c1ccccc1 (stereo unspecified) 7.73%, CCC1=Nc2cc(C(=O)NCCc3ccc(OC)c(OC)c3)ccc2Sc2ccccc21 73.4%, CCCCN(CCCC)CCNC(=O)Cn1nc(CC)n2c(cc3sccc32)c1=O -13%, CCc1nc2ccccc2n2c(-c3ccc(C)cc3)c3c(=O)n(C)c(=O)n(C)c3c12 1.56%, O=C(Cn1c(=O)n(-c2ccc(F)cc2)c(=O)c2sc3ccccc3c21)NC1CCCC1 16.7%, COc1ccc(-n2nc3ccc(NC(=O)c4c(OC)cccc4OC)cc3n2)cc1 4.7%, CCc1ccc2oc(C(=O)Nc3ccccc3OC)cc(=O)c2c1 -0.347%, Cc1csc2nc(COC(=O)CNC(=O)c3ccc(F)cc3)cc(=O)n12 -0.329%, COc1ccc(CSc2nc3ccncc3n2CC(=O)Nc2cc(C)cc(C)c2)cc1 0.82%, Fc1ccc(Nc2nc(SCc3ccccc3Cl)nc3ccccc23)cc1 -4.41%, Cc1cc(C)cc(NC(=O)C2CCCN(S(=O)(=O)c3cccc4nsnc34)C2)c1 (stereo unspecified) 28.7%, Cc1cccc(N2CCN(C(c3ccccc3)c3nnc(-c4ccccc4F)o3)CC2)c1C (stereo unspecified) 1.01%, Cc1ccc(C(=O)Nc2ccccc2C(=O)OCc2cc(=O)n3nc(C(C)C)sc3n2)cc1 3.83%, Cc1ccc(C)c(NC(=O)CN(C)S(=O)(=O)c2cccc3cccnc23)c1 10.2%, Cc1ccc(Cl)cc1N1CCN(CCCNC(=O)Cn2ncc3c([nH]c4ccccc43)c2=O)CC1 1.81%, CCOc1ccc(N(C(=O)c2ccc(Cl)cc2)S(=O)(=O)c2ccc3c(c2)n(C)c(=O)n3C)cc1 -0.319%, Fc1ccc(-c2noc3ncnc(Nc4ccc(F)cc4F)c23)cc1 2.24%, CCOc1ccc(CCNC(=O)c2cccc(Nc3nc4ccccc4nc3-n3nc(C)cc3C)c2)cc1OCC 4.6%, COc1ccc(S(=O)(=O)c2c(Nc3c(C)cccc3C)sc(C(=O)c3ccc(F)cc3)c2N)cc1 22.6%, COC(=O)c1ccccc1NC(=O)C1=CC(c2ccc3c(c2)OCO3)=NS(=O)(=O)N1C 5.97%, Cc1ccc(CNc2nc3ccc(Cl)cc3n3cnnc23)cc1 -7.16%, CCc1cccc(C)c1Nc1c(-c2ccc(SC)cc2)nc2sccn12 -0.732%, Cc1ccc(C)c(NC(=O)CSc2nc(-c3ccccc3)c(C#N)c(=O)[nH]2)c1 2.98%, CC(=O)c1cccc(NC(=O)Nc2c(C)n(C)n(-c3ccccc3)c2=O)c1 3.72%, COc1ccc(-c2cc(-c3ccccc3)nc(SCC(=O)Nc3ccccc3C)c2C#N)cc1 3.86%, Cc1cccc(-c2nc(CCNC(=O)COc3ccccc3)cs2)c1 -3.9%, COc1ccc(CCNC(=O)Cn2nnc(-c3ccc(Cl)cc3)n2)cc1OC -3.7%, O=C(CSc1ccc(-c2cccs2)nn1)Nc1ccccc1 18.7%, Cc1cccc(NC(=O)CSc2ncc(-c3ccc(Br)cc3)[nH]2)c1 -5.33%, CC(C)Oc1ccc(CN2CCc3nc(Nc4ccc5c(c4)OCCO5)ncc3C2)cc1 -1.3%, Cc1ccc(Sc2c(C(=O)NCc3cccc(F)c3)[nH]c3ccccc23)cc1 4.22%, CC(NC(=O)CN1C(=O)COc2ccc(S(=O)(=O)N3CCCCCC3)cc21)c1ccccc1 (stereo unspecified) 3.08%, CN(C)CCNC(=O)c1ccc(-n2c(-c3ccccc3)cc3c2CCCCC3)cc1 -5.55%, Cc1ccc(-c2nc3cc(NC(=O)c4cc5ccccc5o4)ccc3o2)cc1Cl -2.54%, CCN1CCc2c(sc(NC(=O)c3ccc(S(=O)(=O)N(CCOC)CCOC)cc3)c2C(N)=O)C1 -27.8%, COC(=O)c1ccc(NC(=O)CN2CCCN(Cc3ccc(Cl)cc3)S2(=O)=O)cc1 -8.51%, Cc1c(C(=O)N(C)C)sc2c1c(=O)n(-c1ccc(Cl)c(Cl)c1)c(=O)n2CC(=O)C(C)(C)C -6.99%, Cc1nc2ccn(Cc3cccs3)c(=O)c2cc1C(=O)NCc1ccc(Br)cc1 -14.1%

outcome, inactive:
COc1ccc(NC(=O)CSc2nc(-c3cccs3)cc(C(F)(F)F)n2)cc1Cl, Cc1ccc(CNC(=O)C(NS(=O)(=O)c2cccs2)C(C)C)cc1 (stereo unspecified), Cc1ccc(CSC2=Nc3ccccc3C3=NC(CCC(=O)NC4CCCCC4)C(=O)N23)cc1 (stereo unspecified), CCOC(=O)c1c(C)[nH]c(C)c1S(=O)(=O)NCC(=O)Nc1ccc(C)cc1C, NC(=O)C1CCN(C(=O)c2ccc3c(c2)N(Cc2cccc(Cl)c2)C(=O)c2ccccc2S3=O)CC1 (stereo unspecified), CCOc1ccccc1NC(=O)C1CCC(CNS(=O)(=O)c2ccc3c(c2)CCCC(=O)N3)CC1 (stereo unspecified), COc1ccc(CC(=O)NCCS(=O)(=O)N2CCN(c3ccccc3F)CC2)cc1OC, Cc1cccc(NC(=O)Cn2c(=O)n(Cc3ccccc3)c(=O)c3sc4ccccc4c32)c1, O=C(CC1N=C2c3ccccc3N=C(SCc3ccc(F)cc3)N2C1=O)NC1CCCCC1 (stereo unspecified), COc1cccc(CNc2nc3ccccc3c3nc(-c4cccc(C)c4)nn23)c1, Cc1ccc(CN(Cc2ccco2)C(=O)c2ccc(Cl)cc2Cl)cc1, CCOCCCn1c(SCC(=O)Nc2cc(C)ccc2C)nc2c(oc3ccccc32)c1=O, COc1ccccc1CNC(=O)CCC(=O)N1CC(C)Sc2ccccc21 (stereo unspecified), O=C(COc1ccc(Cl)cc1)N(Cc1ccco1)Cc1ccco1
